Sequences and labels used below:
B1: PhoQ; a variant is named by its letters at X, in order, P23837 (parent)
chain: MKKLLRLFFPLSLRVRFLLATAAVVLVLSLAYGMVALIGYSVSFDKTTFRLLRGESNLFYTLAKWENNKLHVELPENIDKQSPTMTLIYDENGQLLWAQRDVPWLMKMIQPDWLKSNGFHEIEADVNDTSLLLSGDHSIQQQLQEVREDDDDAEMTHSVAVNVYPATSRMPKLTIVVVDTIPVELKSSYMVWSWFIYVLSANLLLVIPLLWVAAWWSLRPIEALAKEVRELEEHNRELLNPATTRELTSLVRNLNRLLKSERERYDKYRTTLTDLTHSLKTPLXXLQXXLRSLRSEKMSVSDAEPVMLEQISRISQQIGYYLHRASMRGGTLLSRELHPVAPLLDNLTSALNKVYQRKGVNISLDISPEISFVGEQNDFVEVMGNVLDNACKYCLEFVEISARQTDEHLYIVVEDDGPGIPLSKREVIFDRGQRVDTLRPGQGVGLAVAREITEQYEGKIVAGESMLGGARMEVIFGRQHSAPKDE

This is one part of the list.

The variants in the test derive from B1. As to the kind of experiment: enrichment ratio after two sorts for PhoP signalling (ratio (wild type AVST 3.29)); higher = more functional. The following applies: with PhoP (E. coli).
With VASP, the enrichment ratio is at most 0.25.

With RQCK, the enrichment ratio was at most 0.25.

Take HESG: the enrichment ratio is at most 0.25.

Regarding TLAH, the enrichment ratio came to 7.64.

As to TSVW, the enrichment ratio was at most 0.25.

Turning to PERI, the enrichment ratio was at most 0.25.

Turning to GGAW, the enrichment ratio was at most 0.25.

As for MVQH, the enrichment ratio was at most 0.25.

Turning to DGRI, the enrichment ratio was at most 0.25.

YMPV: the enrichment ratio is at most 0.25.

Turning to EPDH, the enrichment ratio is at most 0.25.

Consider FDKW, for which the enrichment ratio was at most 0.25.

With NNCQ, the enrichment ratio was at most 0.25.

Turning to IKYV, the enrichment ratio is at most 0.25.

In the case of MQYT, the enrichment ratio stood at 3.84.

In the case of NARL, the enrichment ratio was at most 0.25.

For MLTS, the enrichment ratio was at most 0.25.

In the case of YGCC, the enrichment ratio is at most 0.25.

With YKDE, the enrichment ratio is at most 0.25.

On to NLTF, for which the enrichment ratio is at most 0.25.

Turning to HHDW, the enrichment ratio was at most 0.25.

Turning to QVEP, the enrichment ratio was at most 0.25.

On to FKYG, for which the enrichment ratio is at most 0.25.

As to PIGE, the enrichment ratio was at most 0.25.

As for TEVW, the enrichment ratio turned out to be 7.43.

Take ELLN: the enrichment ratio is at most 0.25.

RCMR: the enrichment ratio is at most 0.25.

Turning to INKE, the enrichment ratio was at most 0.25.

Take KTKI: the enrichment ratio is at most 0.25.

As to YKKC, the enrichment ratio is at most 0.25.

With HFYI, the enrichment ratio is at most 0.25.

Regarding GLKG, the enrichment ratio was at most 0.25.

Consider RETM, for which the enrichment ratio is at most 0.25.

Consider GQGF, for which the enrichment ratio was at most 0.25.

As for SGLW, the enrichment ratio was at most 0.25.

As to AQVA, the enrichment ratio came out at 14.1.

As to IINY, the enrichment ratio is at most 0.25.

On to HPPF, for which the enrichment ratio was at most 0.25.

Regarding FVQR, the enrichment ratio was at most 0.25.

As for QDWV, the enrichment ratio is at most 0.25.

Regarding NLTH, the enrichment ratio was at most 0.25.

Regarding MPDS, the enrichment ratio was at most 0.25.

For the variant WNFR, the enrichment ratio is at most 0.25.

Regarding PHVK, the enrichment ratio is at most 0.25.

As to EVGC, the enrichment ratio is at most 0.25.

Turning to YQHM, the enrichment ratio was at most 0.25.

As to IMWW, the enrichment ratio was at most 0.25.

For VTTD, the enrichment ratio was at most 0.25.

With WRTH, the enrichment ratio came out at 1.58.

Turning to YAPL, the enrichment ratio is at most 0.25.

For the variant VEPN, the enrichment ratio is at most 0.25.

As to AQWC, the enrichment ratio is at most 0.25.

In the case of QNPT, the enrichment ratio was at most 0.25.

As for NEIR, the enrichment ratio was at most 0.25.

For the variant VRCV, the enrichment ratio is at most 0.25.

Take FEWV: the enrichment ratio is at most 0.25.

As to HWGQ, the enrichment ratio is at most 0.25.

Regarding QTMY, the enrichment ratio is at most 0.25.

On to DRTC, for which the enrichment ratio is at most 0.25.

For the variant CYSH, the enrichment ratio was at most 0.25.

On to TMDC, for which the enrichment ratio was at most 0.25.

On to WMFP, for which the enrichment ratio was at most 0.25.

Turning to GETD, the enrichment ratio was at most 0.25.

Turning to HIWN, the enrichment ratio is at most 0.25.

For NHIM, the enrichment ratio is at most 0.25.

With LEPW, the enrichment ratio is at most 0.25.

On to MDLW, for which the enrichment ratio is at most 0.25.

In the case of FQPF, the enrichment ratio was at most 0.25.

Turning to LYMV, the enrichment ratio is at most 0.25.

For the variant RYEP, the enrichment ratio is at most 0.25.

For KLIK, the enrichment ratio was at most 0.25.

For the variant ICGK, the enrichment ratio is at most 0.25.

As for FKLD, the enrichment ratio is at most 0.25.

For TYAD, the enrichment ratio is at most 0.25.

For the variant LFTH, the enrichment ratio is at most 0.25.

For the variant FCHN, the enrichment ratio was at most 0.25.

As for DLEM, the enrichment ratio is at most 0.25.

For LLVI, the enrichment ratio was at most 0.25.

For the variant ACIR, the enrichment ratio was 1.38.

Turning to HPPS, the enrichment ratio is at most 0.25.

Regarding SFIY, the enrichment ratio is at most 0.25.

For the variant KCQI, the enrichment ratio is at most 0.25.

In the case of SWVM, the enrichment ratio was at most 0.25.

For CHYS, the enrichment ratio is at most 0.25.

As for SYMW, the enrichment ratio is at most 0.25.

Take EGRY: the enrichment ratio is at most 0.25.

Consider SRQK, for which the enrichment ratio was at most 0.25.

Regarding HSGN, the enrichment ratio is at most 0.25.

In the case of TGIM, the enrichment ratio was at most 0.25.

Take RQCE: the enrichment ratio is at most 0.25.

Regarding IRKK, the enrichment ratio is at most 0.25.

For IFLL, the enrichment ratio was at most 0.25.

As to SKCP, the enrichment ratio was at most 0.25.

With MMFI, the enrichment ratio is at most 0.25.

As for QKPD, the enrichment ratio is at most 0.25.

For the variant DPFV, the enrichment ratio is at most 0.25.

Consider HTMA, for which the enrichment ratio was at most 0.25.

As to QGHQ, the enrichment ratio is at most 0.25.

Regarding LCPM, the enrichment ratio was at most 0.25.

Regarding HPWW, the enrichment ratio was at most 0.25.

Consider AHHA, for which the enrichment ratio was at most 0.25.

As for QNDN, the enrichment ratio was at most 0.25.

FCKE: the enrichment ratio is at most 0.25.

For PHGK, the enrichment ratio is at most 0.25.

As to HMTE, the enrichment ratio was at most 0.25.

In the case of IQIE, the enrichment ratio was at most 0.25.

On to FTRE, for which the enrichment ratio was at most 0.25.

For the variant IDMH, the enrichment ratio was at most 0.25.

As to YVHN, the enrichment ratio was at most 0.25.

As to TCEC, the enrichment ratio is at most 0.25.

Regarding QTTP, the enrichment ratio was at most 0.25.

For QMCV, the enrichment ratio was at most 0.25.

As to HWQQ, the enrichment ratio was at most 0.25.

Take AKDW: the enrichment ratio is at most 0.25.

On to MQKH, for which the enrichment ratio is at most 0.25.

With NIAI, the enrichment ratio was at most 0.25.

For LQLY, the enrichment ratio is at most 0.25.

For VIKC, the enrichment ratio is at most 0.25.

For SEID, the enrichment ratio was at most 0.25.

In the case of TFCS, the enrichment ratio amounted to 1.98.

Take MNRF: the enrichment ratio is at most 0.25.

YPLY: the enrichment ratio is at most 0.25.

As for MIEG, the enrichment ratio is at most 0.25.

Turning to PAPN, the enrichment ratio was at most 0.25.

Regarding AKHM, the enrichment ratio is at most 0.25.

Consider TYNL, for which the enrichment ratio was 3.68.

On to RFNE, for which the enrichment ratio was at most 0.25.

For the variant RRSH, the enrichment ratio was determined as 1.39.

Turning to DQPL, the enrichment ratio was at most 0.25.

For SLNG, the enrichment ratio came out at 0.339.

Consider QGFI, for which the enrichment ratio is at most 0.25.

Regarding QCVF, the enrichment ratio was at most 0.25.

Consider MVRF, for which the enrichment ratio was at most 0.25.

For DIVQ, the enrichment ratio was at most 0.25.

In the case of PDMC, the enrichment ratio is at most 0.25.

Consider KFEV, for which the enrichment ratio was at most 0.25.

Consider VWMR, for which the enrichment ratio was at most 0.25.

Regarding FQKT, the enrichment ratio was at most 0.25.

Turning to HHSW, the enrichment ratio was at most 0.25.

Take VWMP: the enrichment ratio was at most 0.25.

As for AVTV, the enrichment ratio came out at 12.1.

In the case of PRCH, the enrichment ratio is at most 0.25.

Regarding QNRQ, the enrichment ratio was at most 0.25.

Take VCTY: the enrichment ratio is at most 0.25.

For TNHM, the enrichment ratio was at most 0.25.

WTSC: the enrichment ratio was at most 0.25.

For the variant LCPN, the enrichment ratio was at most 0.25.

With KNVH, the enrichment ratio is at most 0.25.

As to RNPD, the enrichment ratio is at most 0.25.

As for FQLE, the enrichment ratio is 4.96.

As to IYKW, the enrichment ratio was at most 0.25.

As for TCEF, the enrichment ratio came out at 13.2.

Regarding DPNG, the enrichment ratio was at most 0.25.

For the origin of these results see a collection of fitness landscapes (doi:10.1126/science.1257360).
